{
  "source": "PubChem BioAssay AID1346428",
  "about": "(National Center for Advancing Translational Sciences (NCATS), 2018)",
  "note": "“And” between values parts separate entries of the source, which are not always exact repeats. Identical values can stand only once. The campaign covered roughly 48,000 compounds. About 1,200 (2.5%) were called active. Inconclusive results (about 2%) are left out.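 Rule for the calls: active = activation of at least 60% and not above a set upper limit (about 1 call in 100 departs from these limits); inconclusive = activation of 40% to 60%, or above that upper limit; inactive = activation under 40%.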 The list shows a part of the results.",
  "data": [
    {"molecular_target": "Probable G-protein coupled receptor 32 (Homo sapiens) (UniProt O75388)", "sequence (O75388 whole entry, looked up)": "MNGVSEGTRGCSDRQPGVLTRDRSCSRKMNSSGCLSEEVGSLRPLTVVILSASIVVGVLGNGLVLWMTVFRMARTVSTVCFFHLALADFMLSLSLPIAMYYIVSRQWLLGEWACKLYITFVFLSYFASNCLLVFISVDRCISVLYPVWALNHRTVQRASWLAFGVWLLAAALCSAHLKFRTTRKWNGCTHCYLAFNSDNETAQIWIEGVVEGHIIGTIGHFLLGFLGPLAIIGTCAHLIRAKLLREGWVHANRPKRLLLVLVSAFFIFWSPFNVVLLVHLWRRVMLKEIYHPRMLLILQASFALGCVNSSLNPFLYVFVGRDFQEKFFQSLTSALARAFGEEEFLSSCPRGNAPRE", "experiment": "qHTS for Agonists of Human Resolvin D1 Receptor DRV1; note: 0% is about no effect", "details": "CHO-K1 GPR32 beta-arrestin PathHunter luminescence, 90 min; at 76.9 µM; hits give high values; zero percent set by DMSO-only wells", "method_in_brief": "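Engineered CHO-K1 line co-expressing GPR32-ProLink and EA-beta-arrestin. Compound treatment lasted 90 min at 37 °C. Luminescence was recorded after 1 h with substrate at ambient temperature, relative to DMSO basal wells.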", "values": [
      {"smiles": "CCc1nn2c(=O)cc(COC(=O)c3ccc(NC(=O)C4CCCCC4)cc3)nc2s1", "activation": "inactive: -13.3%"},
      {"smiles": "CCC1CCc2nc3sc(C(=O)Nc4cccc(C(F)(F)F)c4)c(N)c3cc2C1", "note": "(stereo not given)", "activation": "inactive: 21%"},
      {"smiles": "O=C(COc1ccc(F)cc1)Nc1ccccc1OCc1cc(=O)n2ccccc2n1", "activation": "inactive: -13%"},
      {"smiles": "COc1cccc(NC(=O)c2ccc3[nH]c(C)cc(=O)c3c2)c1", "activation": "inactive: -0.0785%"},
      {"smiles": "O=C(CCn1c(=O)c2cccn2c2cccnc21)NCc1ccccc1F", "activation": "inactive: -8.52%"},
      {"smiles": "COc1ccc(S(=O)(=O)Nc2cc3c(cc2N2CCOCC2)n(C)c(=O)n3C)cc1", "activation": "inactive: -9.08%"},
      {"smiles": "CCCc1cc(=O)oc2cc(C)c3c(C(C)(C)C)coc3c12", "activation": "inactive: 10.5%"},
      {"smiles": "COC(=O)c1ccc(Cn2nc(-c3ccc(C)cc3)ccc2=O)cc1", "activation": "inactive: -44.6%"},
      {"smiles": "NC(=O)c1ccccc1O", "activation": "inactive: -1.12%"},
      {"smiles": "Cn1c(SCc2ccccc2Cl)nc2c([nH]c3ccccc32)c1=O", "activation": "inactive: 0.094%"},
      {"smiles": "CCc1cccc(NC(=O)c2oc3ccc4c(c3c2C)C(=O)CC(C)(C)O4)c1", "activation": "inactive: -4.82%"},
      {"smiles": "NC(=O)CSc1nnnn1-c1cccc(O)c1", "activation": "inactive: 7.97%"},
      {"smiles": "COc1cccc(CN2C(=O)C3(SCC(=O)N3c3ccc(C(C)C)cc3)c3ccccc32)c1", "note": "(stereo not given)", "activation": "inactive: -14.6%"},
      {"smiles": "O=C(c1ccc2c(c1)OCCO2)N(Cc1cccnc1)c1nc2c(F)cc(F)cc2s1", "activation": "inactive: -21.8%"},
      {"smiles": "COc1cccc(CNS(=O)(=O)c2ccc(-c3cc(C(F)(F)F)on3)s2)c1", "activation": "inactive: -14%"},
      {"smiles": "CCOC(=O)c1ccc(N2C(=O)Cc3cc(OCC)c(OCC)cc3C2c2ccccc2)cc1", "note": "(stereo not given)", "activation": "inactive: -3.84%"},
      {"smiles": "CCOc1ccc(NS(=O)(=O)c2ccc3[nH]cc(C(=O)N4CCCCCC4)c(=O)c3c2)cc1", "activation": "inactive: -1.85%"},
      {"smiles": "COc1ccc(N(CC(=O)Nc2cc(Cl)ccc2C)S(=O)(=O)c2c(C)noc2C)cc1", "activation": "inactive: -4.88%"},
      {"smiles": "CCOc1ccc(C(=O)Nc2ccc3oc(-c4ccc(Br)cc4)nc3c2)cc1", "activation": "inactive: 0.786%"},
      {"smiles": "Cc1ccccc1-c1nc(SCC(=O)NCC2CCCO2)c2c(=O)n(C)c(=O)n(C)c2n1", "note": "(stereo not given)", "activation": "inactive: -5.31%"},
      {"smiles": "COc1ccc(Cc2nc3ccc(C(=O)NCCCN4CCN(C)CC4)cc3o2)cc1", "activation": "inactive: -30.8%"},
      {"smiles": "Cc1cccc(CCNC(=O)CCc2c(C)nc3ncnn3c2C)c1", "activation": "inactive: -2.29%"},
      {"smiles": "COCCNC(=O)c1ccc2c(=O)n(CCOC)c(SCC(=O)c3c[nH]c4ccccc34)nc2c1", "activation": "inactive: 8.48%"},
      {"smiles": "COc1ccc(N2CCN(C(=O)c3sc4nc5n(c(=O)c4c3C)CCC5)CC2)cc1", "activation": "inactive: -14%"},
      {"smiles": "COc1ccccc1NC(=O)CCn1cnc2onc(-c3ccc(F)cc3)c2c1=O", "activation": "inactive: 37%"},
      {"smiles": "COc1cc(C)ccc1OCCSc1nc2ccc(NC(=O)c3ccc(C)cc3)cc2s1", "activation": "inactive: -0.17%"},
      {"smiles": "CC1(C)CC(=O)c2cc(-c3nc(-c4ccc(Cl)cc4)cs3)c(=O)n(-c3cccc(F)c3)c2C1", "activation": "inactive: 20.1%"},
      {"smiles": "CCCNC(=O)C1CCN(Cc2cc3ccccc3n2Cc2ccccc2)CC1", "activation": "inactive: -12.7%"},
      {"smiles": "COc1ccc(CNC(=O)CCc2c(C)nc3nc(CNC(=O)OC(C)(C)C)nn3c2C)cc1", "activation": "inactive: -7.07%"},
      {"smiles": "Cn1cc(C(=O)NCCc2ccccc2)c(=O)c2cc(S(=O)(=O)N3CCCCCC3)ccc21", "activation": "inactive: -19.1%"},
      {"smiles": "Cc1c(C(=O)N(Cc2ccc(N(C)C)cc2)Cc2ccco2)oc2cc(Br)ccc12", "activation": "inactive: -24.9%"},
      {"smiles": "CC(=O)c1cccc(Nc2nn(-c3ccc(OC(F)(F)F)cc3)nc2C(C)=O)c1", "activation": "inactive: -7.26%"},
      {"smiles": "COc1ccc(-c2ccc(CCC(=O)O)n2CC(=O)Nc2cccc(Cl)c2C)cc1", "activation": "inactive: -24.7%"},
      {"smiles": "CCCSc1nnc2c(n1)OC(c1ccc(OCC(=O)O)cc1)Nc1ccccc1-2", "note": "(stereo not given)", "activation": "inactive: -6.3%"},
      {"smiles": "COc1ccccc1-c1noc(-c2ccc(NCc3cccnc3)c([N+](=O)[O-])c2)n1", "activation": "inactive: -18.4%"},
      {"smiles": "CCCCN1CCC(n2c(=O)[nH]c3ccccc32)CC1", "activation": "inactive: -5.33%"},
      {"smiles": "O=C(CN1C(=O)CC(c2ccco2)Sc2ccccc21)Nc1ccc(Br)cc1", "note": "(stereo not given)", "activation": "inactive: -4.69%"},
      {"smiles": "CCc1cc2c(cc3c(=O)n(CC(=O)NC4CCCCC4)ncn32)s1", "activation": "inactive: -0.31%"},
      {"smiles": "COc1ccc(-n2ccn(Cc3ccccc3C)c(=O)c2=O)cc1", "activation": "inactive: -26.3%"},
      {"smiles": "CCCCn1cc(S(=O)(=O)c2ccc(CC)cc2)c(=O)c2cc(F)c(N3CCOCC3)cc21", "activation": "inactive: -7.82%"},
      {"smiles": "Cc1cc(C)cc(NC(=O)C(=O)NCC(c2cccnc2)N2CCN(c3ccccc3)CC2)c1", "note": "(stereo not given)", "activation": "inactive: -8.87%"},
      {"smiles": "COc1cccc(C(c2sc3nc(-c4ccco4)nn3c2O)N2CCN(c3ccccc3F)CC2)c1", "note": "(stereo not given)", "activation": "inactive: -7.32%"},
      {"smiles": "CCOc1ccc(N(C(C)C(=O)NCCSc2ccc(C)cc2)S(C)(=O)=O)cc1", "note": "(stereo not given)", "activation": "inactive: 17.4%"},
      {"smiles": "COc1ccc(NC(=O)C(C)Sc2cc(-c3ccccc3)nc(C)n2)cc1Cl", "note": "(stereo not given)", "activation": "inactive: -18.2%"},
      {"smiles": "COc1ccc(-c2cc(C(=O)NCCc3ccc(OC)c(OC)c3)c3ccccc3n2)cc1", "activation": "inactive: -46.7%"},
      {"smiles": "O=C1CN(C(=O)Nc2ccccc2Cl)C(c2ccccc2)c2c(sc3c2CCCC3)N1", "note": "(stereo not given)", "activation": "inactive: -15.4%"},
      {"smiles": "Cc1nn(-c2ccccc2)c2c1N(CCCC(=O)NCc1ccccc1)C(=O)CS2", "activation": "inactive: -18.4%"},
      {"smiles": "CC(=O)Nc1ccc(NC(=O)c2cc3sccc3n2Cc2ccc(Cl)cc2)cc1", "activation": "inactive: 39.5%"},
      {"smiles": "Cc1cc(C)cc(NC(=O)Nc2ccccc2OCc2cc(=O)n3ccccc3n2)c1", "activation": "inactive: -5.68%"},
      {"smiles": "CCOC(=O)c1c(NC(=O)/C(C#N)=C/c2ccccc2)sc2c1CCC2", "activation": "inactive: 13.3%"},
      {"smiles": "COc1cc(NC(=O)Cn2cnc3c2c(=O)n(C)c(=O)n3C)c(OC)cc1Cl", "activation": "inactive: 12.8%"},
      {"smiles": "CCOc1ccccc1NC(=O)c1c(NCc2cccs2)sc2c1CCCCC2", "activation": "inactive: -12.7%"},
      {"smiles": "CCOc1cc(/C=C(\\C#N)C(=O)Nc2ccc(C)cc2)ccc1OCc1cc(=O)n2nc(CC)sc2n1", "activation": "inactive: 1.78%"},
      {"smiles": "CCOc1ccc(NC(=O)c2c(NC(=O)c3ccccc3F)sc3c2CCC3)cc1", "activation": "inactive: 3.98%"},
      {"smiles": "C#CCn1cnc2c(cnn2-c2ccc(F)cc2)c1=O", "activation": "inactive: -4.94%"},
      {"smiles": "CCC(=O)N1CCc2cc(Br)cc(S(=O)(=O)CCC(=O)Nc3ccc(C)c(F)c3)c21", "activation": "inactive: -2.55%"},
      {"smiles": "O=C(NOCC1CC1)c1ccc(F)c(F)c1Nc1ccc(I)cc1Cl", "activation": "inactive: 45.6%"},
      {"smiles": "COc1ccc2c(c1)CC(C(=O)NCCCN1CCN(c3ccccc3F)CC1)CO2", "note": "(stereo not given)", "activation": "inactive: -3%"},
      {"smiles": "CCC(=O)N1CCc2cc(CNS(=O)(=O)c3ccc(NC(=O)CC(C)C)cc3)ccc21", "activation": "inactive: 0.129%"},
      {"smiles": "CCc1c(C)sc2c1CCN(C(=O)Nc1cc(Cl)c(OC)cc1OC)C2c1ccccc1", "note": "(stereo not given)", "activation": "inactive: -9.27%"},
      {"smiles": "COc1cccc2c1Oc1ncccc1N(C(=O)CCC(=O)NC(C)C)C2", "activation": "inactive: 8.46%"},
      {"smiles": "CCN(CC)S(=O)(=O)c1ccc(NC(=O)c2c(C)oc3ncnc(N4CCOCC4)c23)cc1", "activation": "inactive: -12.5%"},
      {"smiles": "CCn1c(C)c(C)c2cc(C(=O)NCc3ccc(OC)cc3OC)ccc21", "activation": "inactive: -26.1%"},
      {"smiles": "CC(C)(C)c1ccc(C2=NC(C)(C)N(CC(=O)Nc3ccc(F)c(F)c3)C2=O)cc1", "activation": "inactive: 2.63%"},
      {"smiles": "Cc1ccc(-c2nnc(Nc3ccc(OCC(N)=O)cc3)c3ccccc23)cc1S(=O)(=O)N(C)C", "activation": "inactive: -2.43%"},
      {"smiles": "CCOC(=O)c1c(NC(=O)c2cc3nc(-c4ccccc4)cc(C(F)(F)F)n3n2)sc2c1CCC(C)C2", "note": "(stereo not given)", "activation": "inactive: -15.7%"},
      {"smiles": "CCCNC(=O)c1cnc2sc(N3CCCCCC3)nn2c1=O", "activation": "inactive: 1.29%"},
      {"smiles": "CCc1nn(CC(=O)NCc2ccc(OC)c(OC)c2)c(=O)c2cc3sc(C)cc3n12", "activation": "inactive: -3.62%"},
      {"smiles": "Cc1ccccc1C(=O)OCc1cc(=O)n2c(C)csc2n1", "activation": "active: 75.1%"},
      {"smiles": "CCOc1ccc(C(=O)Nc2ccccc2OCc2cc(=O)n3ccccc3n2)cc1", "activation": "inactive: -6.76%"},
      {"smiles": "Cc1cc(C(=O)Nc2cccc(F)c2)c2c(C)nn(-c3cccc(Cl)c3C)c2n1", "activation": "inactive: -3.28%"},
      {"smiles": "COc1ccccc1OCCCCn1c(-c2ccc(Cl)cc2)nc2ccccc2c1=O", "activation": "inactive: -11.4%"},
      {"smiles": "CN(C)c1ccc(C(=O)Nc2cccc(-c3nc4cccnc4s3)c2)cc1", "activation": "inactive: -15.8%"},
      {"smiles": "COc1ccc(CCNC(=O)c2nc(SCc3ccc(C)cc3)ncc2Cl)cc1OC", "activation": "inactive: -21.5%"},
      {"smiles": "CCOC(=O)N1CCC(=C2c3ccc(Cl)cc3CCc3cccnc32)CC1", "activation": "inactive: 6.05% and inactive: -26.6%"},
      {"smiles": "CCOC(=O)Cn1c(=O)n(-c2ccccc2OC)c2nc(-c3ccccc3F)nc(C(N)=O)c21", "activation": "inactive: -43%"},
      {"smiles": "O=C(Nc1ccc(C(F)(F)F)cc1)C1CCN(c2cnccn2)CC1", "activation": "inactive: -35.1%"},
      {"smiles": "Cc1ccc(CCNC(=O)c2cc(C)nc3c2c(C)nn3-c2ccc(C)cc2)cc1", "activation": "inactive: -6.04%"},
      {"smiles": "COc1cccc2cc(-c3csc(-c4ccc(Cl)cc4)n3)c(=O)oc12", "activation": "inactive: 3.79%"},
      {"smiles": "COc1cccc(Cn2c(SCC(=O)N(C)c3ccccc3)nc3ccccc32)c1", "activation": "inactive: 9.84%"},
      {"smiles": "COC(=O)c1ccc(Cn2c(SCc3ccccc3)nc3ccncc32)cc1", "activation": "inactive: -14.6%"},
      {"smiles": "Cc1ccc(-c2nc(CS(=O)(=O)CC(=O)NCc3ccc(Cl)cc3)c(C)o2)cc1", "activation": "inactive: -1.77%"},
      {"smiles": "CCc1ccc(-n2c(SCc3ccccc3C)nc3[nH]ncc3c2=O)cc1", "activation": "inactive: -33.1%"},
      {"smiles": "CCc1c(C)c2ccc(O)c(CN3CCN(c4ccc(OC)cc4)CC3)c2oc1=O", "activation": "inactive: -7.92%"},
      {"smiles": "Cc1ccccc1CNC(=O)c1ccc(CSc2nc3cccnc3n2Cc2ccccc2)cc1", "activation": "inactive: -1.73%"}
    ]}
  ]
}
